Out of some 310,000 compounds screened, about 2,200 (0.71%) showed an effect of 50% or more. Effects have a minus sign here. This is one part of the list.
target: human ether-à-go-go-related gene (hERG) potassium channel (human, UniProt Q12809); experiment: primary screen, population patch clamp on CHO cells stably expressing hERG
Sequence (Q12809 whole entry, looked up): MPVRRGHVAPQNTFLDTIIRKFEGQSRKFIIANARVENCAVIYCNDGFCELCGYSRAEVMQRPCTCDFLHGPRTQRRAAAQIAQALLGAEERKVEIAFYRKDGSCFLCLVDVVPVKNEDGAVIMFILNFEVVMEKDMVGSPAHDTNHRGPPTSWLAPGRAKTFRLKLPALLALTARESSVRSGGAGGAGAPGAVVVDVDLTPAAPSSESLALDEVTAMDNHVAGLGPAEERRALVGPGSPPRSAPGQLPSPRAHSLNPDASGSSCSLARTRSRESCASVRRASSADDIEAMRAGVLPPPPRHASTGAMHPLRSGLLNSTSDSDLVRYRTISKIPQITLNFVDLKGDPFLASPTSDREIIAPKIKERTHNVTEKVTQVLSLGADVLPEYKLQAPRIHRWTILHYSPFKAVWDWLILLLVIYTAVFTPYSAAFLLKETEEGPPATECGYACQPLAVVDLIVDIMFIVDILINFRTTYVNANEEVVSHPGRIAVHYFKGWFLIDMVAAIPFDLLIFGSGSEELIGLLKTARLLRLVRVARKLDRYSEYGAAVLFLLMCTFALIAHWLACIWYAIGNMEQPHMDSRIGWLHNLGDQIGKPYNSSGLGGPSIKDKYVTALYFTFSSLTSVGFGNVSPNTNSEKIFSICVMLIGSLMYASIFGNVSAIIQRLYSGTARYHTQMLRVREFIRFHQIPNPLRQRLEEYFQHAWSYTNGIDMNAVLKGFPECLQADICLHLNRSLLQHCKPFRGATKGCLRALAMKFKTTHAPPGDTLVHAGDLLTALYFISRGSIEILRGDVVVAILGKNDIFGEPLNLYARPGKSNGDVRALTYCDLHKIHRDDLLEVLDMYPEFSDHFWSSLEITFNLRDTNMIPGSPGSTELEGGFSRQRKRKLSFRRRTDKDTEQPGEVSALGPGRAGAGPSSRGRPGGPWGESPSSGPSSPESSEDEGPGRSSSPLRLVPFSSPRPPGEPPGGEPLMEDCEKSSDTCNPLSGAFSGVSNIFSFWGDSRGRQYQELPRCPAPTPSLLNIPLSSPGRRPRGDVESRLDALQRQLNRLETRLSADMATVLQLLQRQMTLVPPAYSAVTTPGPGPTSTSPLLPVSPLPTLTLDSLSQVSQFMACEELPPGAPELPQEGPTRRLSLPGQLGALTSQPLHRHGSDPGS

Structure (SMILES) | hERG current change (%, negative = inhibition) at 1uM
Cc1ccc(C)c(OCC(=O)Nc2ccccc2C(=O)N2CCN(C)CC2)c1 | 10.7%
CC(C)(C)NC(=O)Nc1nnc(SCC(=O)NC2CCCCC2)s1 | 5.64%
O=C(NCc1ccccc1)C(=O)c1cn(CC(=O)N2CCOCC2)c2ccccc12 | 15.3%
Oc1cc2c(cc1CN1CCc3ccccc3C1)OCO2 | 15.1%
CCc1nnc(NC(=O)C2CCN(c3nc(C)cc(C)n3)CC2)s1 | 9.93%
COc1cc(C2c3c(oc4cc(C)c(C)cc4c3=O)C(=O)N2c2cc(C)ccn2)ccc1O (centres unmarked) | 5.48%
O=C(NNC(=O)c1ccc(NC(=O)c2ccccc2)cc1)c1ccccc1 | 18%
O=C(CO/N=C/c1ccc(OC(F)F)cc1)NCc1ccco1 | -4.07%
Cc1cccc(C)c1OCCCCCNCCO | 14.8%
O=C(N/N=C\c1cc2c(cc1Cl)OCO2)c1cccnc1 | 12.5%
O=C(CN1CCC(n2nnc3cc(F)ccc32)CC1)NNC(=O)c1ccccc1 | 1.57%
CC1CCc2sc(C(=O)N3CCC(C(N)=O)CC3)cc2C1 (centres unmarked) | 14%
COCCN(C(=S)Nc1cccc(Cl)c1C)C(C)c1ccco1 (centres unmarked) | -0.387%
Fc1ccc(-c2csc(-c3ccc(C4SCCS4)cc3)n2)cc1F | 10.8%
O=C(OCc1cc(=O)oc2cc(O)ccc12)c1cc(S(=O)(=O)N2CCOCC2)ccc1F | 16.5%
CC(CNS(=O)(=O)c1ccc2c(c1)CC(=O)N2C)c1ccccc1 (centres unmarked) | 5.56%
CC(=O)Nc1ccc(S(=O)(=O)Nc2ccc(S(=O)(=O)Nc3ncccn3)cc2)cc1 | 8.81%
O=c1cc(-c2ccccc2)[nH]c2cc(F)ccc12 | 8.14%
CSCC[C@H](NC(=O)NCCc1ccc(F)cc1)C(=O)O | 7.04%
CCCNC(=O)Nc1nc2ccccc2s1 | 5.3%
O=C(CNC(c1ccccc1)c1ccccc1)Nc1ccccc1Br | 7.78%
COCCn1c(=NC(=O)c2ccc(S(=O)(=O)N3CCc4ccccc4C3)cc2)sc2cc(S(N)(=O)=O)ccc21 | 7.07%
Cc1cccc(NS(=O)(=O)c2cnc[nH]2)c1 | 7.05%

Structure (SMILES) | hERG current change (%, negative = inhibition) at 1uM
COC(=O)c1ccccc1NC(=O)c1cc(-c2ccco2)on1 | 17.4%
COc1cccc(CN2CCNC(=O)C2CC(=O)NC2CCCCCCC2)c1 (centres unmarked) | 15%
CC(Sc1nc2ccccc2c(=O)n1C)C(=O)Nc1ccc2c(c1)OCCO2 (centres unmarked) | 12.4%
Cc1c(CCO)c(=O)n(C)n1C(=O)c1ccc(Cl)cc1 | 5.55%
Cc1csc(NC(=O)CSc2nncn2C)n1 | 12.3%
COc1ccc(C(=O)N2CCN(S(=O)(=O)c3ccc4c(c3)OCCO4)CC2)cc1OC | -3.61%
O=C1CCN(CCc2ccccc2)CCN1[C@H](CSc1ccc(Br)cc1)c1ccccc1 | -18.8%
O=C1CN(C(=O)CN2CCCCC2)C(c2ccccc2)c2cc(Br)ccc2N1 (centres unmarked) | -43.4%
O=C(/C=C/Nc1ccccc1)c1ccc(Cl)cc1Cl | 12.9%
CN(c1cc(=O)n2ccccc2n1)C1CCCCC1 | 9.46%
C[C@@H](NC(=O)[C@@H]1Cc2ccccc2CN1)C(=O)NCC1CCCO1 (some centres unmarked) | 15.6%
CCCCC(=O)Nc1nnc(S(=O)(=O)N(CC)c2ccc(OC)cc2)s1 | 7.09%
CCOc1ccc(NC(=O)CN(C)C(=O)c2ccc(COc3ccccc3)cc2)cc1OCC | 4.94%
CCC(C(=O)Nc1cc(C)cc(C)n1)c1ccccc1 (centres unmarked) | 6.28%
COc1ccc(NC(=O)Nc2ccc(O)c3ccccc23)cc1 | 12.1%
CCCCn1c(=NC(=O)c2ccco2)c(C(=O)OCC)cc2c(=O)n3cccc(C)c3nc21 | -16.5%
CCC(O)C1CCN(Cc2cn(-c3ccc(OC)cc3)nc2-c2cccc(F)c2)CC1 (centres unmarked) | -17.5%
CCc1ccc(NC(=O)CNC(=O)[C@@H]2Cc3ccccc3CN2C(=O)OC(C)(C)C)cc1 | 2.75%
CCn1nc(NS(=O)(=O)c2ccc(NC(C)=O)cc2)c2cc3cc(C)ccc3nc21 | 8.67%
CCOC(=O)Nc1ccc(C(=O)Oc2ccccc2)c(O)c1 | 12.8%
Cc1ccc(C(=O)CSc2nnnn2Cc2ccccc2)cc1C | 18.1%
COc1cc(/C=C2/C(=N)N3N=C(CC(=O)N4CCOCC4)SC3=NC2=O)ccc1OCc1ccccc1 | 16%
O=C(Oc1ccc(Br)cc1)c1cncc(Br)c1 | 9.89%

Structure (SMILES) | hERG current change (%, negative = inhibition) at 1uM
CCN(CC)CCOc1ncnc2c1oc1ccccc12 | -4.09%
O=C(O)CNC(=O)c1ccccc1 | 12.8%
CN(C)Cc1ccc(F)cc1Sc1cc(Cl)ccc1Cl.Cl | 12.9%
COC(=O)c1sccc1NC(=O)c1c(C)noc1C | 8.24%
O=C(CN1CCN(Cc2cccc(F)c2)CC1)Nc1ccccc1F | -1.76%
CCOC(=O)c1ccc(-c2c(-c3ccc4c(c3)OCO4)noc2-c2ccsc2)cc1F | 1.32%
CN(C(=O)c1ccc(NC(=O)Cc2ccc(NC(=O)C3CCN(C(=O)c4ccccc4)CC3)cc2)cc1)C1CC1 | 14.9%
Cc1nn(Cc2ccccc2)c(Cl)c1C(=O)NCc1ccco1 | 2.6%
Cc1onc(C(=O)Nc2sc3c(c2C(N)=O)CCCC3)c1[N+](=O)[O-] | 10.8%
O=C1C(=O)N(CCCn2ccnc2)C(c2ccc(Cl)cc2)/C1=C(\O)c1ccc2c(c1)OCCO2 (centres unmarked) | 17.5%
COCCCNC(=O)c1cccs1 | 11.4%
NP(=O)(OCC(F)(F)F)Oc1ccc(Cl)cc1 (centres unmarked) | 6.8%
CCCC(C)NC(=O)CSCc1ccc(OC)cc1 (centres unmarked) | 15%
COC(=O)CSc1nc(C2CC2)nc2ccccc12 | 3.01%
COc1ccc(N(CC(=O)N2CCCCCC2)S(=O)(=O)c2ccccc2)cc1 | 7.03%
O=c1cc(C(F)(F)F)nc(SC/C=C/c2ccccc2)[nH]1 | 7.13%
COc1cccc(S(=O)(=O)Nc2ccc(C(=O)N3CCCCCC3)cc2)c1 | 14.1%
CN(C)/C=C/C(=O)C(Cl)(Cl)Cl | 16%
COc1cccc(N2CCN(CC(=O)NC3=Nc4ccccc4N=C(C)C3c3ccccc3)CC2)c1 (centres unmarked) | 5.74%
COc1cc(O)c(C(CC(=O)N2CCCC(C)C2)c2cc(OC)c(OC)c(OC)c2)c(OC)c1 (centres unmarked) | 11.2%
CC(=O)Nc1ccc(S(=O)(=O)NCC(=O)NC(C)c2ccc(S(N)(=O)=O)cc2)cc1 (centres unmarked) | 11.4%
O=S1(=O)C=C(N2CCCCC2)c2ccccc21 | -2.89%
Cc1ccccc1-c1cc(C(=O)NCc2cccc(C(F)(F)F)c2)nn1CC1CC(c2cccc([N+](=O)[O-])c2)=NO1 (centres unmarked) | 11.1%

Structure (SMILES) | hERG current change (%, negative = inhibition) at 1uM
CCCn1nnc(NC(=O)c2ccc(Br)o2)n1 | 11.9%
CCOc1ccc(CNC(=O)CN2C(=O)C(c3ccccc3)Oc3cccnc32)cc1 (centres unmarked) | 2.93%
CCOC(=O)CNC(=S)N(Cc1ccco1)Cc1ccccc1Cl | 7.92%
Cc1csc(NC(=O)c2ccc(C)c([N+](=O)[O-])c2)n1 | -2.03%
OC(COc1ccccc1)CN(Cc1ccccc1)CC(O)COc1ccccc1 (centres unmarked) | 3.76%
Cc1cc(NC(=O)Cn2cnc3c(cnn3C(C)(C)C)c2=O)no1 | 8.56%
Cc1cc(C)nc(SCC(=O)c2ccc(F)cc2)n1 | 10.1%
O=c1[nH]c(C2CCN(S(=O)(=O)c3ccccc3)CC2)nc2c1nnn2Cc1ccccc1 | 12.6%
COc1ccc(S(=O)(=O)Nc2ccccc2C(=O)N2CCCC2)cc1OC | 8.14%
O=C1N=C(N2CCN(c3ccccc3)CC2)S/C1=C/c1cccs1 | -7.01%
Cc1cc(C)c(C#N)c(N2CCN(CCOc3ccc(Cl)cc3)CC2)n1 | 2.01%
O=C(CCCCC(=O)Nc1ccc(F)cc1)Nc1ccc(F)cc1 | 12.8%
CS(=O)(=O)/C(C#N)=C/c1cccn1S(=O)(=O)c1ccccc1 | 14.3%
C=CCn1cnc2c(oc3ccccc32)c1=O | 11.2%
Cc1ccccc1NC(=O)Cc1nc(CSc2nnc(C3CCCCC3)n2N)cs1 | 2.59%
Cc1ccc(NC(=O)CN2c3cccc4cccc(c34)S2(=O)=O)cc1S(=O)(=O)N1CCOCC1 | 4.03%
CC(OC(=O)CN1C(=O)NC2(CCCCC2C)C1=O)c1ccccc1 (centres unmarked) | 4.46%
Cc1ccc(S(=O)(=O)NC(=O)NCc2ccccn2)cc1 | 7.43%
CN1CCN(C(=O)c2cnn3c2NC(c2ccccc2)CC3C(F)(F)F)CC1 (centres unmarked) | 13%
COc1cccc(-n2nnnc2SCC(=O)Nc2ccc(OC)cc2OC)c1 | -3.45%

Reference: article PMC4336329 (PLoS ONE, 2015)
